Results taken from paper PMC4336329 (PLoS ONE, 2015).
Screen size: about 310,000 compounds; about 2,200 (0.71%) showed an effect of 50% or more. Effects have a minus sign here. The list shows a part of the results.

Biological target: human ether-à-go-go-related gene (hERG) potassium channel (human, UniProt Q12809)
Assay: primary screen, population patch clamp on CHO cells stably expressing hERG

human ether-à-go-go-related gene (hERG) potassium channel, sequence (Q12809 whole entry, looked up): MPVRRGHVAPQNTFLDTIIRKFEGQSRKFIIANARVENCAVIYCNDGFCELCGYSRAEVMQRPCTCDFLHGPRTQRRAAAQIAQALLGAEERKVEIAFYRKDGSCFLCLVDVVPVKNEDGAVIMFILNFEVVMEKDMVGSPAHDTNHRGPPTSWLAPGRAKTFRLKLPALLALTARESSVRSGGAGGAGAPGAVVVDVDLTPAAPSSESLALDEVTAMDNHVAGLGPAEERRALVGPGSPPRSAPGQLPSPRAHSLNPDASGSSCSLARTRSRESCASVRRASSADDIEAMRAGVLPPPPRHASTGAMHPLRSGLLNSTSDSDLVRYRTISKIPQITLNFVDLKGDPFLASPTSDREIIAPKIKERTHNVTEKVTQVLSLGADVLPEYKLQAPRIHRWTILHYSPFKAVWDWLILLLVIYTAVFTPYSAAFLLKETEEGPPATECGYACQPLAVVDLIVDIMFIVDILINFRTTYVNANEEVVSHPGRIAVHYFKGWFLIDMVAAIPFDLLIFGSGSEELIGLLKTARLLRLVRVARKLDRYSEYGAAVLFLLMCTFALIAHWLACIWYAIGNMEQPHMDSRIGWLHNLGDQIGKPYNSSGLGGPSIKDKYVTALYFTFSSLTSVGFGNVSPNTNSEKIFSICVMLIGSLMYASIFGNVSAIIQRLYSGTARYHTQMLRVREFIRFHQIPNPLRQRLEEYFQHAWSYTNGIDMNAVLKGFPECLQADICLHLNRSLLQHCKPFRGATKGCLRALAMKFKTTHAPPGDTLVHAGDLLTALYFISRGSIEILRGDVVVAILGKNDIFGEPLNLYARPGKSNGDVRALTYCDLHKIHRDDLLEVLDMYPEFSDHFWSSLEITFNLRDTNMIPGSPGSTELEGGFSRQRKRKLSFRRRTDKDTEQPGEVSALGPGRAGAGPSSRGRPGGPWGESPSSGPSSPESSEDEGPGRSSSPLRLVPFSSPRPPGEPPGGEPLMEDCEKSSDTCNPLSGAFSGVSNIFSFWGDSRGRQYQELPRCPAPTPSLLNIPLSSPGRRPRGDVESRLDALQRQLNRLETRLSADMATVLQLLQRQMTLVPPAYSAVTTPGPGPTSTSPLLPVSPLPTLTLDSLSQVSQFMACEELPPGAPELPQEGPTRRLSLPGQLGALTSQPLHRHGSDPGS

SMILES | hERG current change (%, negative = inhibition) at 1uM
O=C(c1ccc2c(c1)OCO2)N1CCN(c2ncccn2)CC1 | 1.2%
N=c1c(C(=O)NC2CCCC2)cc2c(=O)n3ccccc3nc2n1CCCN1CCOCC1 | -63.7%
O=C(O)CCC(=O)Nc1nc2nc(-c3ccccc3)cc(-c3ccccc3)n2n1 | 3.77%
Cc1ccc(-n2nc3c(N4CCC(C(=O)NCCc5cccs5)CC4)nnc(C)c3c2C)cc1 | 7.85%
c1ccc(SCCOCCN2CCc3ccccc3C2)cc1 | -62.7%
COc1ccc(-c2nnc(SCCC(=O)O)n2C)cc1OC | 1.85%
CCN(CC(=O)Nc1cc(Cl)ccc1C)C(=O)c1ccc(=O)n(Cc2ccccc2)n1 | 9.23%
O=C1C2C3C=CC(C3)C2C(=O)N1CCN1CCN(Cc2ccc([N+](=O)[O-])cc2)CC1 (centres unmarked) | 2.59%
Cc1n[nH]c(=O)n1-c1ccc(C(C)C)cc1 | 14.5%
Cc1sc2ncn(CC(=O)NCC(=O)N3CCN(c4ccccc4F)CC3)c(=O)c2c1C | 7.84%
O=C(Nc1cccc(N2C(=O)C3CCCCC3C2=O)c1)c1ccccc1 (centres unmarked) | 13.3%
COc1ccc(CC(=O)OCC(=O)NC2CC2)cc1 | 10.1%
O=C(Nc1c(C(=O)c2ccccc2)oc2ccccc12)c1cc(-c2ccccc2O)n[nH]1 | 17%
CCOC(=O)CCCn1ncn2c(cc3occc32)c1=O | 11.4%
N#CC1(NC(=O)COC(=O)c2cc(O)c3ccccc3c2O)CCCCC1 | 2.61%
CC1CCCN(C(=O)COC(=O)c2cc(-c3cccs3)nn2-c2ccccc2)C1 (centres unmarked) | 1.34%
CN(CC(=O)Oc1ccc(-c2nnco2)cc1)S(=O)(=O)c1ccc(F)cc1 | -3.03%
COc1ccc(OC)c(NC(=O)CN2CCN(C(=O)c3ccco3)CC2)c1 | -4.43%
Cc1ccc(Sc2cnc3ccccc3n2)cc1 | 0.237%

SMILES | hERG current change (%, negative = inhibition) at 1uM
Clc1cccc(-c2nc(NCCCN3CCOCC3)c3ccccc3n2)c1 | 12.3%
CC(=O)Nc1ccc(OCC=C(Cl)Cl)cc1 | 4.11%
CCn1cc(/C=c2/sc3n(c2=O)C2c4ccccc4OC(C)(N=3)C2C(=O)OC)c(C)n1 (centres unmarked) | -0.252%
O=C(CCNC(=O)c1ccc([N+](=O)[O-])cc1)Nc1ccc(S(=O)(=O)N2CCOCC2)cc1 | 11.2%
CCCN1C(=O)/C(=C/c2ccc(C)o2)SC1=Nc1ccc(OC)cc1 | 9.04%
O=C(COc1nsnc1N1CCOCC1)Nc1ccc([N+](=O)[O-])cc1 | 4.03%
O=C(NCc1cn(-c2ccccc2)nc1-c1ccccc1)c1ccc([N+](=O)[O-])cc1 | 4.3%
COc1ccccc1CNC(=O)CS(=O)(=O)c1ccc(C)cc1 | -8.82%
C=CCc1cc(/C=C2/NC(=O)NC2=O)cc(OCC)c1O | 13.9%
CC(O)(c1ccccc1)C(c1ccccc1)C1CCCCN1 (centres unmarked) | 5.01%
Cc1ccc(O)c(Nc2nc(-c3ccccc3)nc3ccccc23)c1 | 13.9%
O=C(Cn1c(=O)oc2cc(S(=O)(=O)N3CCc4ccccc43)ccc21)NC1CCCC1 | 7.19%
CNC(=O)CSc1nnc(C(C)C)n1C | -4.95%
O=C(Cn1c(C(F)(F)F)nc2ccccc21)c1ccccc1 | 2.92%
CCCCCCCNC(=O)C1(CC2CC(c3ccc(Cl)cc3)=NO2)CCN(C(=O)C2CCCC2)CC1 (centres unmarked) | -1.93%
CCOC(=O)c1ccc(/C=C2/C=C(c3ccccc3)N(c3ccc(Cl)c(C(=O)O)c3)C2=O)cc1 | 4.2%
O=C(c1ccccc1)C(Cn1cncn1)C(Sc1ccccc1)c1ccccc1 (centres unmarked) | 8.96%
O=C(NCCC(=O)N1CCOCCOCCOCCOCC1)OCc1ccccc1 | 7.45%
Cn1cccc1C(=O)NNC(=O)c1ccccc1Br | 6.21%

SMILES | hERG current change (%, negative = inhibition) at 1uM
O=C(Nc1nc(=O)c2ccccc2s1)c1ccc(Cl)cc1 | 1.03%
CCN(CC(=O)Nc1ccccc1C(F)(F)F)C(=O)c1ccc2[nH]c3c(c2c1)CC(C)CC3 (centres unmarked) | 5.83%
CC1=C(C(=O)N2CCCC(N3CCN(c4ccccc4C)CC3)C2)OCCO1 (centres unmarked) | 8.7%
Cc1ccc(Cn2nc(C)c(NC(=O)CCCn3nc([N+](=O)[O-])c(Cl)c3C)c2C)cc1 | -19.8%
CCOC(=O)Cc1csc(NC(=S)NC(=O)c2cc(OC)c(OC)c(OC)c2)n1 | 7.63%
COc1ccc(C(C(=O)NC2CCCCC2)N(C(=O)CCl)c2cccc(Cl)c2)cc1 (centres unmarked) | 10.5%
CCc1nc(SCc2ccccc2C)n[nH]1 | 20.8%
CCn1cc(S(=O)(=O)NCCc2ccc(OC)c(OC)c2)cn1 | -33.5%
CCN(CC)C(=S)SCC(=O)NC12CC3CC(CC(C3)C1)C2 | 9.3%
O=C1C(=O)N(C/C=C/c2ccccc2)c2ccccc21 | 10.4%
CC1CCN(C(=O)Cn2c(=O)n(-c3ccc(F)cc3)c(=O)c3sccc32)CC1 | -6.41%
CCOc1c(C)cc(-c2ncccc2O)cc1C.Cl | 0.307%
Cc1cccc(N(C(=O)Cn2nnc3ccccc32)C(C(=O)NC(C)(C)C)c2ccsc2)c1 (centres unmarked) | 6.95%
Nc1ccccc1SCc1ccccc1 | 8.05%
NS(=O)(=O)c1cccc(NC(=O)Cn2cc(C(F)(F)F)cc(Cl)c2=O)c1 | 9.47%
O=C(O)C1CCCN1C(=O)c1cncc(Br)c1 (centres unmarked) | 11%
Cc1nn(-c2ccccc2)c2[nH]c(=O)c(CNc3ccc(N4CCOCC4)cc3)cc12 | 9.72%
COc1ccc(NC(=O)C2=NN(c3ccccc3)C(=O)CC2)cn1 | -4.49%
